# Some of the results follow. Single values of this set are uncertain.
# System: U2OS
# Experiment: Cell Painting induction (percent of morphological features significantly changed vs DMSO); higher = stronger morphological change
# Conditions: 10 µM, 20 h
# Procedure: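 Cell Painting assay in U2OS cells: compounds at 10 µM for 20 h, six dyes, 579 robust CellProfiler features as Z-scores vs DMSO median (MAD). Induction is the % of significantly changed features (active if ≥5%); relative cell count is in % of DMSO. The primary run holds DCM compounds preselected for induction ≥10%; the confirmation repeat defines active compounds (370 of 549). Replicate agreement is low, attributed to precipitation.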
# [1] = run: primary screen (compounds selected for induction >=10%)
# 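Also: stains mark DNA, RNA and nucleoli, ER, actin, Golgi, plasma membrane and mitochondria, read by high-content imaging, with DMSO controls at matching solvent concentration.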
Compound,Cell Painting induction (run: confirmation repeat),Cell Painting induction [1] [%]
CCN(CC)CCn1c(NCc2cc(OC)ccc2OC)nc2ccccc21,inactive: 4.8%,15.7
CCOC(=O)N1CCC(N(CCN(C)C)C(=S)Nc2cccc(Cl)c2C)CC1,active: 24%,33.2
CCOCCn1c(=O)c2c(nc3n2CCN3c2ccc(CC)cc2)n(C)c1=O,inactive: 1%,16.1
COC(=O)c1cccc(Oc2nc3c(c(=O)n(C)c(=O)n3C)n2Cc2ccc(C)cc2)c1,inactive: 0%,11.1
CCCCN(C)CCn1c(=S)[nH]c2cc(OCC)c(OCC)cc2c1=O,active: 15%,26.1
CC1CCC(NC(=O)C2CCC(CNS(=O)(=O)c3ccc4c(c3)C(C)(C)C(=O)N4C)CC2)CC1 (centres undefined),active: 48.7%,35.4
CCOc1ccc(Oc2nc(Nc3ccc(C)cc3)nc(N(C)C)n2)nn1,inactive: 4.5%,11.1
CCOC(=O)N1CCC(N2Cc3cccc(C(=O)Nc4ccc(S(=O)(=O)N(CC)CC)cc4)c3C2=O)CC1,inactive: 2.1%,24.2
NC(=O)c1nc(-c2ccncc2)nc2c1nc(O)n2-c1ccc(Cl)cc1,active: 14.9%,19.7
COc1ccc(N2CCN(CCNC(=O)Nc3cc(Cl)ccc3Cl)CC2)cc1,inactive: 3.1%,26.1
Cc1ccc(-n2nc3c(=O)n(CCCC(=O)N4CCC(C)CC4)nc(C)c3c2C)cc1,active: 14.7%,11.7
O=C(c1ccc2c(c1)N(Cc1cccc(Cl)c1)C(=O)c1ccccc1S2=O)N1Cc2ccccc2C1 (centres undefined),active: 15.7%,15
CC(C)NC(=O)c1ccc2c(c1)N(Cc1c(F)cccc1Cl)C(=O)c1ccccc1S2,active: 6.4%,19.2
Cc1cccc(CN2C(=O)c3ccccc3Sc3ccc(C(=O)NCCCN4CCOCC4)cc32)c1,inactive: 3.5%,18.8
CCCCN(CCCC)CC(O)CN(c1ccccc1)S(=O)(=O)c1ccc(C)cc1 (centres undefined),active: 55.4%,43.5
COc1ccc(N(CC(=O)N/N=C(\C)c2cccs2)S(=O)(=O)c2ccccc2)cc1Cl,inactive: 0%,21.2
CCOc1ccc(NC(=O)NCC2CCN(Cc3ccc(F)cc3)CC2)cc1,active: 24.5%,26.8
CCOc1ccc(CCNC(=O)c2ccc3c(=O)n4c(nc3c2)CCCCC4)cc1,active: 36.8%,42.5
COc1cccc(NC(=O)c2cnn(-c3ccc(C)cc3)c2C2CCNCC2)c1,active: 27.5%,25.9
COc1ccc(S(=O)(=O)NC2CC(C)(C)NC(C)(C)C2)c2ccccc12,active: 31.4%,31.6
CCOC(=O)c1c(-c2ccccc2)csc1NC(=O)c1cc2ccccc2oc1=O,inactive: 0%,48.4
COc1ccc(Nc2nc(NCc3ccc(C)cc3)nc3c2cnn3C)cc1,active: 22.6%,11.4
COc1cc(C2Nc3ccc4ncccc4c3C3=C2C(=O)CCC3)cc(OC)c1OC (centres undefined),active: 9.3%,15
Cc1ccc(/C=C/c2onc(C)c2S(=O)(=O)N2CCC(C(=O)N3CCCCC3)CC2)cc1,active: 34.2%,32
CCC1Oc2ccccc2N(CC(=O)NCCCN2CCN(c3ccc(OC)cc3)CC2)C1=O (centres undefined),inactive: 4.8%,10.7
Cc1ccc(-c2nc(CS(=O)(=O)CC(=O)NCCCN(Cc3ccccc3)C(C)C)c(C)o2)cc1,active: 37.5%,43.9

Compound,Cell Painting induction (run: confirmation repeat),Cell Painting induction [1] [%]
COc1cc(NC(=O)c2cc(-c3ccc(C)cc3)on2)cc(OC)c1OC,inactive: 3.6%,12.3
Cc1cccc(/C=C2\Sc3ccc(C(=O)N4CCOCC4)cc3N(C)C2=O)c1,active: 31.3%,17.6
COc1ccc(/C=N/NC(=O)c2cccnc2)cc1CN1CCc2cc(OC)c(OC)cc2C1C (centres undefined),active: 24.7%,22.8
CCOc1c(Br)cc(C2CC(=O)Nc3cc(OC)c(OC)cc32)cc1OC (centres undefined),active: 8.1%,15
Cc1ccc(Oc2cc(C#N)c(C#N)cc2-n2nnc3ccccc32)cc1C,inactive: 0.3%,23.5
COc1ccc(-c2cc(O)nc(N3CCN(Cc4ccccc4)CC3)n2)cc1,inactive: 0%,16.6
Cc1ccc(CCNC(=O)CN(c2cc(C)cc(C)c2)S(=O)(=O)c2c(C)noc2C)cc1,active: 13.3%,18.1
COc1cc(-c2ccc(NC(=O)c3ccc(C)cc3)c(OC)c2)ccc1NC(=O)c1ccc(C)cc1,inactive: 0.7%,34.5
Nc1nc(CN2CCN(C(c3ccccc3)c3ccccc3)CC2)nc(Nc2ccccc2)n1,active: 19.5%,18.8
Cc1ccc(Nc2cc(C(=O)NCCCN3CCOCC3)c3ccccc3n2)c(C)c1,active: 36.1%,14.5
COC(=O)c1ccc(N2CCN(C)CC2)c(NC(=O)COc2cccc(C)c2)c1,inactive: 0.3%,20
CCOC(=O)c1c(C)n(C)c2ccc(OCC(O)CNC(CC)CO)cc12 (centres undefined),active: 5.9%,15.5
COc1ccc(CN2CCN(Cc3c[nH]c4ccccc34)CC2)cc1OC,active: 18.5%,18.7
COC(=O)CSC1=C(C#N)C(c2cccc(F)c2)CC(=O)N1 (centres undefined),active: 22.3%,12.4
COc1ccc(CNC(=O)c2cc3c(O)nc4ccccc4c3n2C)cc1,active: 21.6%,26.8
CC1CC(C)CN(CCCNC(=O)c2ccc(CNS(=O)(=O)c3ccc(F)cc3)cc2)C1 (centres undefined),active: 17.3%,32.3
O=C(CSc1nc(O)c2ccccc2n1)Nc1ccccc1C(F)(F)F,inactive: 0%,11.1
COc1cccc(C2=CC(c3cccc(OC)c3OC(F)F)n3nnnc3N2)c1 (centres undefined),active: 18.1%,23.8
COc1ccccc1NC(=O)c1cnn(-c2cccc(C)c2)c1C1CCNCC1,active: 22.6%,17.4
O=C(NCc1ccccn1)c1cc(-c2ccc(Br)cc2)nc2ccccc12,active: 17.3%,12.6
CCCn1c(=O)c(C(=O)NCc2ccccc2Cl)c(O)c2ccccc21,inactive: 0%,16.9
COC(=O)c1c(NC(=O)C2c3ccccc3Oc3ccccc32)sc(C)c1C,active: 10.7%,21.2
O=S(=O)(c1ccc(Cl)cc1)c1cnc2ccccc2c1N1CCCCC1,inactive: 2.8%,21.6
CCOC(=O)C1=C(Nc2cccc3ccccc23)SCC1=O,inactive: 1.9%,11.9
CCn1cc(C(=O)NCCCN2CC(C)CC(C)C2)c(=O)c2cc(S(=O)(=O)N(C)C)ccc21 (centres undefined),inactive: 0.9%,18.1
O=C(CN1C(=O)/C(=C/c2ccccc2)Sc2ccccc21)NCCCN1CCOCC1,active: 19.7%,15.4
